Results on 22 molecules are retold here after paper PMC12136788.

T1: UNK ZnF1-3 (human, UniProt Q9C0B0 31-174)
T1 sequence: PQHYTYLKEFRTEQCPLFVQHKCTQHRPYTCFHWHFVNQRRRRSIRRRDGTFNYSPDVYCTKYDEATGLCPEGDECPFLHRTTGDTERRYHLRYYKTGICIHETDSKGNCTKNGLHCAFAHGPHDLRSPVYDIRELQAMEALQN

B1: 79399197_79401693_468_CDS_ENSMUSG00000027804_ENSMUST00000029382|mouse|control|control (ssRNA)
RNA: GGGAGUUCUACAGUCCGACGAUCAGGAGUCGGAACUGUUGUGAUAAAGAACUGAGAGCCAUUCGUAUUGGGGCCUGCAUUUGCCAUGCUCAGCAAACCCUCCCGAUCAUGCUUAUAAUGAAAAUUUUCAUCUUCAAAUUUUUCCAACAGAGGAUUGAGCAUCA
B2: chr17:60770872:60770873:+_ENSG00000011028_ENST00000303375|hu_hu|hu_hu_hu_mus_True|18_98 (ssRNA)
RNA: GGGAGUUCUACAGUCCGACGAUCUCUUUAAAAAAAAUUCCUUUUUUACAAACAAUAAUAGCACAUUUCGAGAAUCAAGAACUACAAUAGAGGGUCCGCUUUGAGUUUUUGUUCACAACAUUGUCCCCUGGGACACGGGGACUGCAACAGAGGAUUGAGCAUCA
B3: 176015879_176032890_104_3pUTR_ENSG00000115966_ENST00000264110|human|control|control (ssRNA)
RNA: GGGAGUUCUACAGUCCGACGAUCUAGUACCCUUUCCAGGUCACUAGUUCAUGAUCCUUUCGGUCACCCGCGAGCCCUGAGCACAGCCGUGUUUACAAAGCACCCCUGGAGGAAAAGGCUGAACGGCACUUUAAAGGCCACGGGCAACAGAGGAUUGAGCAUCA
B4: chr13:31711309:31711310:-_ENSG00000120694_ENST00000320027|hu_mus|FALSE|FALSE (ssRNA)
RNA: GGGAGUUCUACAGUCCGACGAUCAGAGACUACACAGAUUCAAGCUUUUCCUUUUUUCCCCUCAUAAUACACAAAAUUUCUAGACAGUCUUAAAAAAAAGAAAAUAUAAAUAGACUCAGUCUGUUAUACAGGAUCACAUACUAUCAACAGAGGAUUGAGCAUCA
B5: chr13:91842754:91842755:+_ENSMUSG00000003992_ENSMUST00000004094|mus_mus|FALSE|FALSE (ssRNA)
RNA: GGGAGUUCUACAGUCCGACGAUCCCCAAAAUAUGUGAGUACUGCUGAUUUCAUUAUUAUGGGCUGAAGUAUGCAGAAAGCUAACCUCUGGCAAGCAGCAUAUACAUCAAGAGGACAUGAAUGGGCCAACAGCCGUAGAAUGCACAACAGAGGAUUGAGCAUCA
B6: chrX:140365796:140365797:-_ENSMUSG00000031285_ENSMUST00000033642|mus_mus|mus_mus_mus_hu_False|38_98 (ssRNA)
RNA: GGGAGUUCUACAGUCCGACGAUCCUUCUCAUUACUCAAUGCCUGCAAGGUUCUGGUUCGGUAGAAGCUACAGUGGGCGCUGUGAGUGGGGCUAGGCAGUCCAUUCAUCCGGGAGCCUCGCAUGUUCCUGGAUGUCUUAUCUCUCAACAGAGGAUUGAGCAUCA
B7: chr7:149068622:149068623:-_ENSMUSG00000025139_ENSMUST00000001950|mus_hu|mus_mus_mus_hu_False|18_18 (ssRNA)
RNA: GGGAGUUCUACAGUCCGACGAUCGUGAGGCCUCUGAGUGUGGCUUGUGGUCUGUCCUGGGUUAGAGUUGUUAAUAUCACGGAACAUACCAUCUAGAACGUUCCAGUCCCGCCUGACCAUCCACCCUCCAAUGGAGAAGAAAUCCAACAGAGGAUUGAGCAUCA
B8: chr4:140556289:140556290:+_ENSMUSG00000036622_ENSMUST00000037055|mus_mus|mus_mus_mus_hu_False|18_18 (ssRNA)
RNA: GGGAGUUCUACAGUCCGACGAUCGAUGGAGCUCACCAGGCCCCCUUUUGCCGUGCAGAACCCUGUGCGGGUCACCACUGCCAGGACGUGCGGUCCCACAUAGGCCCGGGCCUGCAAAAUGAGGGUGCCGCAGAAGAGUGUGUGCAACAGAGGAUUGAGCAUCA
B9: chr4:116276896:116276897:-_ENSMUSG00000028693_ENSMUST00000030457|mus_hu|FALSE|FALSE (ssRNA)
RNA: GGGAGUUCUACAGUCCGACGAUCUUUGCUGAACUGUGCCACUGCCUCAUCAUACUGAGAGUUGUACCCAUAAGCCAAGCCCAGCUGGUAGUGGGUCUCUGCAAGGAGACGGUCGUGGGCUUCCAGGUACUGUUCCUGCAGGUUCAACAGAGGAUUGAGCAUCA
B10: chr18:34933064:34933065:+_ENSMUSG00000034300_ENSMUST00000097622|mus_mus|FALSE|FALSE (ssRNA)
RNA: GGGAGUUCUACAGUCCGACGAUCCAGCCACACGCACCACACACGCAGCACAGAUGCAGGCGUCUACACAGCAGCAGCCACAAGCCCCGGAGGUGUGCUCCACUCUGGGUAAGCCCACUGUGUGAGAACCCAAAUGAUGAAACUCAACAGAGGAUUGAGCAUCA
B11: chr9:26905460:26905461:-_ENSG00000137055_ENST00000397292|hu_hu|motif|central (ssRNA)
RNA: GGGAGUUCUACAGUCCGACGAUCUAUUCUCUUUUUUUAAUUAUCUGUUAUCAGUCAUGUCAAAUGUGAGGAAAAAAACACGGAUCAAUUAAAAAUAUCCGUCCCUCUUCCCCACUGCUACAGCAAAUUUAGGAUAAAUCUACACAACAGAGGAUUGAGCAUCA
B12: 128503968_128505323_866_CDS_ENSMUSG00000014355_ENSMUST00000014499|mouse|control|control (ssRNA)
RNA: GGGAGUUCUACAGUCCGACGAUCAGUUAUCUCAUCCAGUGGGUGCAGCAUGCUGAACAUAGUAGGCAAAGGUUCUCUAGGUAGACUUGGAGGUACCUCAUGUGAAGAACUGCAUCGUUCAAACAGCAAGCCAUAUUUAGUGGCCAACAGAGGAUUGAGCAUCA
B13: 87781024_87781144_2837_CDS_ENSMUSG00000004891_ENSMUST00000090973|mouse|control|control (ssRNA)
RNA: GGGAGUUCUACAGUCCGACGAUCUAUAAAGUUCUCCCCAUUUCUAUCUUCAAGAGAUCCCAGGAUCUCAUGAGUCUUGUCUUCUAGCAGGCUCUUAAUCAUGUGGUCAUCUUCUUCCAGAUACCUUGGUGACUGCACAUUCUCCAACAGAGGAUUGAGCAUCA
B14: chr2:73747280:73747281:-_ENSMUSG00000018770_ENSMUST00000018914|mus_hu|FALSE|FALSE (ssRNA)
RNA: GGGAGUUCUACAGUCCGACGAUCCUUCAGCGAAGGGUUUCUGGCAUAACCAAUGAUAAGGCUGCCAAAGACUGUUCCAAUACCAGCACCAGAACCAGCCACUCCUACUGUUGCAGCACCUGCACCAAUAAAUUUGGCAGCAGUCAACAGAGGAUUGAGCAUCA
B15: chr7:30977587:30977588:-_ENSMUSG00000001794_ENSMUST00000108196|mus_mus|FALSE|FALSE (ssRNA)
RNA: GGGAGUUCUACAGUCCGACGAUCAGCUGGACAAAAAGUUUCCUGAACUGACGGACUUCUUCACUCUCGUUGGCCUCAAUAUUGGAGUAAUGACUACGUGGAGGCGGAGGCUCCGGGUUGUACUGCGCAGCAGCCUCGCUCAUCCAACAGAGGAUUGAGCAUCA
B16: chr12:21621489:21621490:+_ENSG00000121350_ENST00000240651|hu_hu|FALSE|FALSE (ssRNA)
RNA: GGGAGUUCUACAGUCCGACGAUCGACUUUGAUGUAUUCUCGUCCUUUGGUACAUCUCAGCAUUAAUUCAUGAUCUGAACCUAAGCCCUGUGCAUUGUAUUUUCCCAGCAGUACAACCUUAUAGUUAAAAAAUUUUGUCACAUGCAACAGAGGAUUGAGCAUCA
B17: chr20:52831857:52831858:+_ENSG00000101132_ENST00000441080|hu_hu|motif|central (ssRNA)
RNA: GGGAGUUCUACAGUCCGACGAUCAAGCAUGAUGUCAUCACAAGCAUCUUCUAGGUUUUGGAGUUGUUUCUUUUUUACUUCGGUUUCUUCCUUCAGCUCUGUGAUUCUACUUGUAUUCCGUGCAAAUUUGUUUAUCUUUUGUUGCAACAGAGGAUUGAGCAUCA
B18: chr15:59387643:59387644:+_ENSG00000157450_ENST00000557998|hu_mus|FALSE|FALSE (ssRNA)
RNA: GGGAGUUCUACAGUCCGACGAUCAAGGGCGGUACUUAACUCAGAAUUCCAUAUUGUAAAUAUACAGCAGCCAUUUUGUCCUAAUUUAAUUAAGGAAUGUCUUAAUACACAAUAUCAUUUCCUAGAAAAUCUUUAUACAUUAAACAACAGAGGAUUGAGCAUCA
B19: chr22:46125322:46125323:+_ENSG00000130638_ENST00000252934|hu_hu|motif|central (ssRNA)
RNA: GGGAGUUCUACAGUCCGACGAUCAAACACAGGGAUGUCAUCCUUGGUGAGUGGCUCAUCACUCGUUAUCUUGGCGGUCAUAAGGUCGGACAGUGUAACUCUUUCUUGAUUGUUCAGUUUGGGAAACAUGGCUUGUACCAAUUCCAACAGAGGAUUGAGCAUCA
B20: 183502860_183506292_1210_CDS_ENSG00000116698_ENST00000515829|human|control|control (ssRNA)
RNA: GGGAGUUCUACAGUCCGACGAUCCCAGGGCCAAAUGUACUGUCUUUCAUCCACCACUGCCUCCUGAAAGACCCUGGGUCUGAGUCUUAGCCAGUCCAUGGAGACCUUGACUGCUGGAAGAGGAUAGGCAUUGUAGGACUCCUCCAACAGAGGAUUGAGCAUCA
B21: chr14:76904430:76904431:+_ENSMUSG00000022010_ENSMUST00000022587|mus_mus|mus_mus_mus_hu_True|58_88 (ssRNA)
RNA: GGGAGUUCUACAGUCCGACGAUCUGCAGCCAAAAACACCCUCGUGGCGGGAGGGAGGGAACACCAGCAGCCUUGUACAAACUAGAUAAAAUCUUCUGGCUUUCCGCAGCCCAGGGAGAAACAGAAAACGGCAGCCCUAAUUUACAACAGAGGAUUGAGCAUCA
B22: chr16:45382771:45382772:-_ENSMUSG00000022661_ENSMUST00000163230|mus_mus|mus_mus_mus_hu_True|48_78 (ssRNA)
RNA: GGGAGUUCUACAGUCCGACGAUCCUGGGUCAUGUUAUAAGACAAAUGGACAGGGAGAGCAUGCUUUUCAAAAAAUGUGAGCUAUUGACUAAGACUAACAAUAUUUAUCUAGCUAUAAAAAUAAGUUAAAUGAAUAAGUUAAGACAACAGAGGAUUGAGCAUCA

Some of the results follow.

The target in the assay is T1, UNK ZnF1-3. Nature of the assay: nsRBNS (natural sequence RNA bind-n-seq); RBNS binding buffer (assumed for nsRBNS): 25 mM Tris pH 7.5, 150 mM KCl, 3 mM MgCl2, 0.01% Triton X-100, 500 ug/ml BSA, 20 U/ml SUPERase-In, 4 C; UNK is unkempt and MSI1 is Musashi-1; names of the RNAs are library labels; protein concentration not given here; high values mean tight binding.
B1 yielded a binding signal of 0.639 enrichment R.
For B2 the value was 1.5 enrichment R; for B3, 0.514 enrichment R.
Turning to B4, the binding signal was found to be 1.95 enrichment R.
B5 displayed a binding signal of 1.35 enrichment R.
For B6 the value was 0.692 enrichment R; for B7, 0.97 enrichment R.
For B8 the value was 1.43 enrichment R.
Next, B9: 0.797 enrichment R; B10: 1.17 enrichment R.
Molecule B11 had a binding signal of 0.626 enrichment R.
For B12 the value was 1.23 enrichment R; for B13, 0.517 enrichment R.
The molecule B14 registered a binding signal of 0.991 enrichment R.
Next, B15: 1.48 enrichment R; B16: 1.35 enrichment R; B17: 0.367 enrichment R.
For B18 the value was 0.707 enrichment R; for B19, 0.767 enrichment R; for B20, 1.16 enrichment R.
For B21 the value was 2.12 enrichment R.
Regarding B22, the binding signal turned out to be 2.1 enrichment R.
